# According to the supplement of paper PMC5499739:
# Whole data set: some 16,000 sequences, median “Z-score” near -0.37, cut for the highest 2% near 3.1. This is one part of the list.
# Tested on: RBM10 RRM1-ZnF-RRM2 (GST-tagged construct)
# Test: RNAcompete 7-mer binding Z-score; higher = stronger binding preference
# Method in brief: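 In 1 ml Hepes pH 7.8 buffer with KCl, NaCl, glycerol, DTT, BSA and glutathione Sepharose beads, GST-tagged RBM10 constructs (20 pmol) were incubated for 30 min at 4°C with 1.5 nmol of a designed pool of 241 399 RNAs up to 41 nt. Four 2-min washes at 4°C followed, and bound RNA was detected by microarray hybridisation. Heptamer motif enrichment was expressed as a one-sided Z-score across probes containing each motif.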
row,Sequence,RNAcompete 7-mer binding Z-score
1,CGGGCUU,0.578
2,GAUAACG,0.268
3,UACUCGU,-0.672
4,ACCCCGG,-0.362
5,ACGAGAA,0.348
6,UAUCUCC,-0.734
7,AAUCUGU,-0.792
8,AAGGAAA,3.21
9,UUUUUGG,-0.151
10,GAAGGCC,0.589
11,AGACUCC,-0.948
12,CAAUGGC,0.548
13,CUAUAGC,-0.544
14,AGCCGAC,-0.664
15,AUGGAGG,4.33
16,UCAUGGC,-0.227
17,GCUAUCA,-0.428
18,GGGAGUG,3.84
19,GAAGUAU,0.115
20,CAUUCAA,-0.388
21,GCUAAGC,-0.664
22,AGCGUUA,0.0422
23,CCGCAAU,-0.763
24,ACAAGAU,-0.224
25,UAAGUUG,0.213

row,Sequence,RNAcompete 7-mer binding Z-score
1,AGACAGC,-0.475
2,UCGUCGU,-0.195
3,AGGACAU,0.65
4,ACUCAUA,-0.857
5,GGCCUAG,-0.264
6,GUACUGG,0.494
7,ACUGGAA,0.712
8,CAAUCCC,-0.533
9,GGGAACC,1.89
10,ACCGGGA,1.12
11,UGAGAGU,0.468
12,CAGAUCG,-0.114
13,ACGCCGU,-0.511
14,ACGUCGG,0.261
15,GUAGAGG,4.02
16,AUUGCAG,0.137
17,GCGCCGG,-0.198
18,AUCAGCU,-0.704
19,GGUUUCU,-0.0233
20,AGUGUUU,0.0277
21,CAAACUC,-0.887
22,AAACAAG,0.585
23,CCCGUGA,-0.377
24,CGCCGUA,-0.588
25,CGAUCCA,-0.61

row,Sequence,RNAcompete 7-mer binding Z-score
1,UACGCUA,-0.508
2,AGUAGAG,1.26
3,GAGGCAC,0.778
4,UCUGCAG,-0.664
5,CAGUUCG,-0.573
6,AAUGUCA,-0.315
7,GCAGACG,0.949
8,AGAAAAG,1.31
9,CUCCCCA,-0.734
10,AAGUCAC,-0.493
11,GGAAUAU,1.17
12,GGUGUUC,0.355
13,UCGCAGC,-0.271
14,AGCAGCU,-0.409
15,ACCGCCC,-0.956
16,ACUGAUU,-0.588
17,GAGGGAU,3.31
18,UGUCCCG,-0.621
19,CAAGGAC,0.847
20,CCUCAGU,-0.825
21,GUUCGCG,-0.366
22,AUUCUGG,-0.18
23,ACGCUCA,-0.701
24,UCCGGGC,-0.078
25,GUGUAGG,3.05

row,Sequence,RNAcompete 7-mer binding Z-score
1,AUUACGA,-0.293
2,UGGUCCG,-0.0161
3,AAGGAGU,3.12
4,GUUUACU,-0.57
5,GGUACAU,0.891
6,GAACUGC,-0.508
7,AACGAUA,0.0532
8,GCUGCUG,-0.377
9,CUCGUUG,-0.511
10,UGCCGAU,-0.708
11,AGUCGAA,0.115
12,UGUAAUA,-0.475
13,CAACGUC,-0.53
14,ACCUCUA,-0.908
15,UCCGACU,-0.752
16,CACUAGC,-0.635
17,AGUAACA,0.192
18,UAGUUGU,-0.49
19,GAAUGGA,3.56
20,UAUAACG,-0.446
21,AUGUGCA,0.283
22,AGGCCUG,-0.632
23,CUUUAUC,-0.934
24,AAAAACA,-0.0525
25,GUCAGAC,-0.22

row,Sequence,RNAcompete 7-mer binding Z-score
1,CUUGUGA,-0.694
2,AAGAGAA,0.45
3,AACAACG,0.0277
4,GUACUUU,-0.694
5,UACUAAU,-0.57
6,GUGCUGG,1.47
7,CACGUAG,0.268
8,UCCUGAC,-0.788
9,CACAUCG,-0.548
10,AAGAUCG,0.0641
11,GCCGCGC,-0.577
12,UAAGAAG,0.64
13,UGGGGCU,2.16
14,UUGUCCG,-0.744
15,AUGUGUA,0.428
16,GCACCAA,-0.369
17,GCGCUGG,0.705
18,GUAAUGA,0.436
19,AACCCCG,-0.617
20,UGUUCCA,-0.712
21,GAAAAGG,4.73
22,GGUGUAC,1.44
23,GCUAUCG,-0.551
24,UCAACUC,-0.675
25,AAGAUAC,-0.253

row,Sequence,RNAcompete 7-mer binding Z-score
1,GACGCCU,-0.989
2,CUACUUG,-0.839
3,AAUCCCU,-0.741
4,CCAUCCG,-0.73
5,GAUGUCG,-0.0379
6,AGAUUGG,2.14
7,CUGCCUU,-0.938
8,GUACGAU,0.323
9,UCAAUGC,-0.533
10,AUCCAGG,0.508
11,AGCGAAC,0.137
12,CUCUGAA,-0.883
13,GGUUAAA,1.37
14,GUGGCAG,1.99
15,CAUCACC,-0.77
16,ACCCGGG,0.00944
17,UACACAC,-0.42
18,CCCCAUU,-0.795
19,UCAGGCC,-0.49
20,GCGGAAU,1.17
21,UGCUCUU,-0.938
22,UAGCCCA,-0.799
23,UUCUAUC,-0.814
24,UGGCAUA,0.468
25,UUAAGAC,-0.621

row,Sequence,RNAcompete 7-mer binding Z-score
1,AUCCUGU,-0.887
2,CCAGCCC,-0.468
3,GAUGCCG,-0.395
4,ACGACCU,-0.952
5,GCGAGUC,0.235
6,UGCAUGC,-0.734
7,UCCGCAU,-0.865
8,CUGGUGG,1.22
9,CCGAGGU,0.487
10,AACUAUC,-0.635
11,GCGGAUC,0.793
12,AUAUGCA,-0.027
13,AGGAUUG,1.45
14,GCGGUAC,0.599
15,GAGUUAC,0.151
16,GUUCGCU,-0.581
17,GUUGCCU,-0.613
18,CUAAGGA,0.286
19,CGGUCUU,-0.694
20,GUCGGUA,0.709
21,GGCUCAU,-0.395
22,AUCUCUU,-0.846
23,UGACAAG,0.348
24,UGCGGCC,-0.439
25,GGCACUU,-0.468

row,Sequence,RNAcompete 7-mer binding Z-score
1,UGGCCCU,-0.522
2,CUGCGGU,0.0714
3,UCCGUCU,-0.763
4,UUAUAGU,-0.442
5,CUACGGG,1.08
6,AACGUUC,-0.602
7,GGUGAAC,1.77
8,GUAGAUU,0.166
9,AGGGAUU,2.37
10,GGAGACA,1.88
11,CGCCGAU,-0.664
12,GAGCGGG,3.33
13,UGUAUUG,-0.398
14,CCUGAGU,-0.621
15,AACAGCU,-0.544
16,UCCAAAG,-0.38
17,CUGCAAA,-0.508
18,UCCCGCU,-0.795
19,UACGGAG,0.982
20,CAGAACU,-0.482
21,CUGCCCU,-0.854
22,AGGUGUG,2.32
23,CGGCACU,-0.398
24,GAACACU,-0.388
25,AUUUUAC,-0.948

row,Sequence,RNAcompete 7-mer binding Z-score
1,GUUUGCC,-0.409
2,AUAUGAC,-0.286
3,UGUUAGU,-0.286
4,GAAGGCU,0.581
5,GUUUGGC,0.243
6,CACGGCA,0.188
7,GAGCAUC,-0.377
8,CGAACGU,-0.235
9,GCAGUUU,-0.442
10,AUUUCUC,-0.828
11,GCCGGUG,0.366
12,GACGGUG,1.7
13,GCGGCCG,0.137
14,CGCCCUU,-0.734
15,UUCGAGU,-0.333
16,GAUGGAG,3.16
17,CUCUCUA,-0.715
18,GUGGUAG,2.26
19,ACCUUGC,-0.967
20,UAUAGAG,0.286
21,UUAUAUA,-0.5
22,UCCGGGA,0.301
23,AAGAACC,-0.562
24,CAGGGUC,1.42
25,GCGCUGC,-0.0598

row,Sequence,RNAcompete 7-mer binding Z-score
1,GUGGUUU,1.1
2,UCUAUUC,-0.734
3,CUGGGAG,1.4
4,ACCCAUC,-0.985
5,GCUUGCG,-0.544
6,UGGCUGA,0.141
7,GCUGCCG,-0.213
8,AGAACCC,-0.985
9,GACCCCC,-0.551
10,UGAACCG,-0.165
11,UUCUGUA,-0.613
12,CACACCA,-0.672
13,GUCCGGC,-0.526
14,GCCUGGC,-0.413
15,CCUCACU,-0.821
16,CACCCGA,-0.795
17,UUCCAGA,-0.519
18,CGUUCCC,-0.664
19,UGGUCAA,0.192
20,GGGUUAA,2.84
21,GGGAAAA,3.43
22,GCUCUCG,-0.42
23,AAGAAUU,-0.286
24,AGAAGAC,0.0349
25,AGCUAAC,-0.326

row,Sequence,RNAcompete 7-mer binding Z-score
1,UUAUGAG,-0.0488
2,ACCUGCU,-0.948
3,ACCUCCU,-0.941
4,CCAAUAC,-0.559
5,UAGGUCG,0.865
6,AUGGCCG,0.104
7,AAGUCAG,0.308
8,CAUGACC,-0.901
9,AGUAGCC,-0.235
10,CGUAGGA,1.7
11,GCGAGCC,0.213
12,UUAAGCU,-0.755
13,AAAAGGA,3.25
14,GCUGACC,-0.661
15,UUCCGUG,-0.453
16,UCGCGAG,-0.114
17,UAGGACG,1.73
18,CCUACGA,-0.675
19,GGAACGC,0.978
20,CCCCUAA,-0.683
21,GCACUGC,-0.326
22,CUCCACC,-0.755
23,ACAGCCG,-0.551
24,GGAGUGC,1.56
25,AGUGAUA,0.428

row,Sequence,RNAcompete 7-mer binding Z-score
1,UGGCGGC,1.16
2,AGGGGUA,3.66
3,CUGAUGA,-0.683
4,UCUGGCA,-0.664
5,UGUUGUA,-0.165
6,AAAUUAG,-0.114
7,UAGGGGA,3.81
8,AGUUUGG,1.46
9,GCCCCCA,-0.468
10,UCGCCUC,-0.945
11,UAUGUGG,0.88
12,GGCUCAC,-0.388
13,AAGUCUA,-0.544
14,AACAGUA,0.192
15,CGUUUAG,-0.65
16,UUUACAA,-0.617
17,GUUACAA,0.461
18,CUAAAUG,-0.406
19,GGCGUUC,0.126
20,CAAACCC,-0.785
21,UAUACGU,-0.271
22,AAACGUC,-0.613
23,GUGCCUC,-0.497
24,CCAUAAG,-0.541
25,GGGCAUU,1.11

row,Sequence,RNAcompete 7-mer binding Z-score
1,GCUGCGU,-0.318
2,AAAAUGU,-0.173
3,UCUUUUU,-0.799
4,AUGUAGG,2.18
5,UGUGGUC,0.202
6,CGUGCAG,0.108
7,CUGUCCU,-0.817
8,AUGAGUG,1.13
9,CUGCGGA,0.0349
10,UACCUGU,-0.857
11,CUUCGAA,-0.777
12,CCCCAGG,-0.246
13,UGUAUUU,-0.836
14,UGAGAGA,0.76
15,AGCCGGU,-0.231
16,AAAUCCU,-0.715
17,AAUUACG,-0.3
18,AAUCGGA,0.701
19,CAGAUAG,0.024
20,UCCUAAA,-0.781
21,UAUGGCA,0.782
22,CGCGCAA,-0.581
23,UCAUGCU,-0.715
24,GUUUCAU,-0.402
25,GAGGUGU,2.31

row,Sequence,RNAcompete 7-mer binding Z-score
1,CAGCAUC,-0.704
2,CGCAUAA,-0.439
3,ACUAGAC,-0.595
4,GUUGCCC,-0.606
5,AAAGACG,0.752
6,AUUUAAU,-0.628
7,UAUUUCG,-0.73
8,CUCGGUU,-0.559
9,UUUGUCA,-0.61
10,ACGGUCG,0.0459
11,UAACGGA,1.09
12,UUACUCG,-0.632
13,GUCGACG,0.224
14,CCUGGCC,-0.817
15,UUCUAGA,-0.708
16,AAAGCUG,-0.256
17,ACUCGCC,-0.868
18,UCACCAU,-0.795
19,GUGCGUU,0.108
20,CCAAAGC,-0.544
21,CACUGUU,-0.69
22,AGAGAAC,-0.0343
23,GCUCAUG,-0.683
24,AUCUAAG,-0.453
25,CCCCAGU,-0.555

row,Sequence,RNAcompete 7-mer binding Z-score
1,UUGAGAA,0.294
2,CGUAUCA,-0.471
3,CGUAUAU,-0.388
4,UCUACGU,-0.624
5,CGCGGAU,0.465
6,CUCGAAU,-0.715
7,GGGAAUA,3.15
8,CUCUUGU,-0.85
9,UUGAGCU,-0.479
10,GUAGUAG,1.08
11,AUAACGA,-0.333
12,AAGCUUU,-0.836
13,AGGCGGC,0.425
14,GGAAACU,0.304
15,CUUGCGU,-0.759
16,CCACUGC,-0.599
17,AGUUUAG,0.101
